Measurements from PubChem BioAssay AID463173 (ICCB-Longwood Screening Facility, Harvard Medical School, 2010).
The campaign covered roughly 52,000 compounds. About 4,300 (8.3%) were called active. Cut-off read from the data, not from the text of the source: active = survival mostly below about 52% (no sharp cut-off); inactive = mostly above about 56%. This is one part of the list.

The molecules below were run on DeltatarO mutant (assay: S. aureus survival, RN4220 and DeltatarO strains – OD600, teichoic acid synthesis inhibitors, primary screen (AID 463173)). Conditions: S. aureus RN4220 wild type/DeltatarO growth, OD600, 18 h, active compounds read low, screened at 18.75 µg/mL (by protocol).

**Q.** CC(C)Oc1ccc(C(=O)Nc2nc3c(s2)CC(C(C)(C)C)CC3)cc1 (stereo not given) was tested. Which survival did it give?
**A.** Its survival is inactive: 115%.

**Q.** Which survival does the source give for O=C(NCC(c1ccc2c(c1)OCO2)N1CCN(c2ccccc2)CC1)c1ccccc1 (stereo not given) here?
**A.** Its survival is inactive: 69%.

**Q.** With Cc1oc2ncn(CC(C)C)c(=O)c2c1C(=O)N(Cc1ccccc1)C(C)C as the molecule, how does the survival read?
**A.** The survival was inactive: 70%.

**Q.** With CCn1c(C)c(C)c2cc(C(=O)NCc3ccc(OC(C)C)cc3)ccc21 as the molecule, how does the survival read?
**A.** The survival was inactive: 90%.

**Q.** Which survival does the source give for COc1ccc(NC(=O)Cn2c(=O)n(Cc3ccc4c(c3)OCO4)c(=O)c3ccc(C(=O)NC4CCCCC4)cc32)cc1 here?
**A.** Its survival is inactive: 73%.

**Q.** COc1ccc(-c2noc(N3CCC(C(=O)N4CCN(c5ccccc5F)CC4)CC3)n2)cc1 was tested. Which survival did it give?
**A.** The survival was inactive: 100%.

**Q.** For CCOCCCNc1nc2ccccc2n2c(CC)nnc12, which survival is on record?
**A.** The survival was inactive: 122%.

**Q.** Which survival does the source give for C=Cc1ccc(Cn2c(=O)cc(C)c3c(C)nn(-c4ccccc4)c32)cc1 here?
**A.** Its survival is active: 17%.

**Q.** With COc1cc(OC)cc(-c2cc3nc(C)c(CCC(=O)Nc4ccc(C(C)=O)cc4)c(C)n3n2)c1 as the molecule, how does the survival read?
**A.** Its survival is inactive: 93%.

**Q.** For CSCCC(NS(=O)(=O)c1ccc2c(c1)oc(=O)n2C)C(=O)Nc1ccc(Cl)cc1 (stereo not given), which survival is on record?
**A.** Its survival is inactive: 94%.

**Q.** CC(C)c1ccc(CNc2nc(-c3ccco3)nn2C(=O)c2ccc([N+](=O)[O-])cc2)cc1 was tested. Which survival did it give?
**A.** Its survival is inactive: 79%.

**Q.** COCc1cc(C)nc2sc3c(c12)NC(c1ccc(O)c(OC)c1)N(c1ccccc1)C3=O (stereo not given) was tested. Which survival did it give?
**A.** Its survival is inactive: 80%.

**Q.** How did the survival turn out when COc1ccc(OCC(=O)N(Cc2cccs2)c2ccc(OC)cc2)cc1 was run?
**A.** The survival was inactive: 66%.

**Q.** C=CCn1cc(/C=C2\SC(=O)N(C)C2=O)c2ccccc21 was tested. Which survival did it give?
**A.** The survival was inactive: 85%.

**Q.** For COC(=O)c1ccccc1NC(=O)Cn1c(=O)n(CCC(=O)NCc2ccccc2OC)c(=O)c2ccccc21, which survival is on record?
**A.** Its survival is inactive: 82%.

**Q.** How did the survival turn out when Cc1cccc(NC(=O)CCN2CCN(c3ccccc3F)CC2)c1 was run?
**A.** The survival was inactive: 151%.

**Q.** With CCOC(=O)c1c(S(=O)(=O)NCC(=O)N2CCN(c3cc(C)ccc3C)CC2)c(C)n(C)c1C as the molecule, how does the survival read?
**A.** The survival was inactive: 71%.

**Q.** COc1ccc2occ(C(=O)c3coc4ccc(O)c(CN(C)C)c34)c2c1 was tested. Which survival did it give?
**A.** Its survival is inactive: 105%.

**Q.** For COc1ccccc1NC(=O)CSc1nc(-c2ccc(C)cc2)nc2c1Cc1c(CO)cnc(C)c1O2, which survival is on record?
**A.** Its survival is active: 49%.

**Q.** Cc1nn2c(=O)cc(COC(=O)c3ccc(NC(=O)c4cccc(Br)c4)cc3)nc2s1 was tested. Which survival did it give?
**A.** Its survival is inactive: 97%.

**Q.** COc1ccc(-c2cn3nc(N4CCCC(C(=O)Nc5ccccc5OC)C4)sc3n2)cc1 (stereo not given) was tested. Which survival did it give?
**A.** The survival was inactive: 124%.

**Q.** How did the survival turn out when COc1ccc(Cl)cc1S(=O)(=O)Nc1cccc(-c2ccc(N3CCCC3)nn2)c1 was run?
**A.** Its survival is inactive: 84%.

**Q.** How did the survival turn out when CN(c1ccccc1)S(=O)(=O)c1nnc(NC(=O)COc2ccccc2)s1 was run?
**A.** The survival was inactive: 56%.

**Q.** CCOC(=O)c1cc2c(=O)n3ccccc3nc2n(Cc2ccco2)c1=NC(=O)c1ccc(C)c(C)c1 was tested. Which survival did it give?
**A.** The survival was active: 34%.

**Q.** For O=C(Nc1cc2c(cc1C(=O)c1cccc(Br)c1)OCCO2)c1ccccc1F, which survival is on record?
**A.** The survival was active: 28%.

**Q.** How did the survival turn out when O=C(Cn1c(=O)oc2cc(S(=O)(=O)N3CCCCCC3)ccc21)Nc1ccc(F)cc1F was run?
**A.** Its survival is inactive: 84%.

**Q.** Cc1ccc(-n2c(=O)c3ccc(C(=O)NCc4ccco4)cc3n(CC(=O)Nc3ccccc3C(F)(F)F)c2=O)cc1 was tested. Which survival did it give?
**A.** The survival was inactive: 80%.

**Q.** With CN(C(=O)Cn1cnc2onc(-c3ccc(F)cc3)c2c1=O)c1ccccc1Cl as the molecule, how does the survival read?
**A.** Its survival is inactive: 99%.

**Q.** How did the survival turn out when Cc1cc(C)cc(-n2c(C)cc(C(=O)C(=O)Nc3nnc(C)s3)c2C)c1 was run?
**A.** Its survival is inactive: 104%.

**Q.** For Cc1cccc(N2CCN(c3ccc(C(=O)O)cc3NC(=O)c3cccc(Cl)c3)CC2C)c1 (stereo not given), which survival is on record?
**A.** Its survival is inactive: 83%.

**Q.** For Cc1cccc(C)c1NC(=O)Cn1c(=O)n(CCCS(=O)(=O)C2CCCCC2)c(=O)c2ccccc21, which survival is on record?
**A.** The survival was inactive: 84%.

**Q.** For CCc1ccc(-c2nc(SCC(=O)NCC3CCCO3)c(-c3ccc(C)cc3)[nH]2)cc1 (stereo not given), which survival is on record?
**A.** Its survival is inactive: 103%.

**Q.** Which survival does the source give for CCCN(C(=O)Cn1ncc2c1-c1ccccc1OC2)c1cccc(C)c1 here?
**A.** Its survival is inactive: 87%.

**Q.** Which survival does the source give for COc1ccc(CCNC(=O)c2nc(SCc3ccccc3F)ncc2Cl)cc1OC here?
**A.** Its survival is inactive: 64%.

**Q.** With CCOC(=O)C1CCN(c2c(C(=O)c3ccc(OC)cc3)cnc3ccccc23)CC1 as the molecule, how does the survival read?
**A.** Its survival is inactive: 125%.

**Q.** For O=C(CSc1nccn1C1CCCC1)Nc1cccc(F)c1, which survival is on record?
**A.** Its survival is inactive: 113%.

**Q.** CSCC[C@@H](C(=O)Nc1cccc(F)c1)N1Cc2ccccc2C1=O was tested. Which survival did it give?
**A.** Its survival is inactive: 90%.

**Q.** CCOCCc1nn2c(=O)cc(COC(=O)Cc3ccccc3)nc2s1 was tested. Which survival did it give?
**A.** The survival was active: 17%.

**Q.** Which survival does the source give for N#Cc1ccccc1NC(=O)C(=O)NCCc1csc2nc(-c3cccc(F)c3)nn12 here?
**A.** The survival was inactive: 70%.

**Q.** Which survival does the source give for CN1CCN(C(=O)c2ccc(C3SCC(=O)N3Cc3ccco3)cc2)CC1 (stereo not given) here?
**A.** The survival was inactive: 87%.

**Q.** CCOC(=O)c1[nH]c(=O)[nH]c1CSc1ccccn1 was tested. Which survival did it give?
**A.** The survival was inactive: 92%.

**Q.** How did the survival turn out when COc1ccc(OC)c(CNC(=O)CN(c2ccc(C)cc2)S(=O)(=O)N(C)C)c1 was run?
**A.** Its survival is inactive: 88%.

**Q.** Cc1cccc(NC(=O)N2CCN(C)c3ncccc32)c1C was tested. Which survival did it give?
**A.** Its survival is inactive: 89%.

**Q.** For CCOc1ccccc1CNC(=O)c1ccc(NC(=O)N2CC(C)Sc3ccccc32)cc1 (stereo not given), which survival is on record?
**A.** Its survival is inactive: 78%.

**Q.** How did the survival turn out when O=C(NC1(C(F)(F)F)C(=O)Nc2c1c(=O)[nH]c(=O)n2-c1ccccc1)c1ccccc1 (stereo not given) was run?
**A.** Its survival is inactive: 76%.

**Q.** COc1ccc2cc3c(N)c(C(=O)Nc4ncc(C)s4)sc3nc2c1 was tested. Which survival did it give?
**A.** The survival was inactive: 64%.

**Q.** Which survival does the source give for CCCN(CCC)C(=O)Cn1c(SCc2cccc(C(F)(F)F)c2)nc2cccnc21 here?
**A.** Its survival is inactive: 95%.

**Q.** For CCOc1ccc(C(=O)NCc2nc3cccnc3n2Cc2cccc(OC)c2)cc1, which survival is on record?
**A.** Its survival is inactive: 96%.

**Q.** How did the survival turn out when CCN(c1ccc(Cl)cc1)S(=O)(=O)c1nnc(NC(=O)c2ccccc2C)s1 was run?
**A.** The survival was active: 8%.

**Q.** With O=C(NCCCc1nc2ccccc2n1Cc1ccccc1Cl)c1ccco1 as the molecule, how does the survival read?
**A.** The survival was inactive: 66%.

**Q.** For CC(CNC(=O)C1CCN(C(=O)N2CCOc3ccc(Cl)cc32)CC1)c1ccccc1 (stereo not given), which survival is on record?
**A.** Its survival is inactive: 52%.

**Q.** How did the survival turn out when CC(=O)Nc1nonc1-c1nc2ccccc2n1Cc1ccc(Cl)cc1Cl was run?
**A.** Its survival is inactive: 88%.

**Q.** With COc1ccc(NC(=O)CSc2nc3ccccc3n2CC(=O)N2CCCCC2C)cc1 (stereo not given) as the molecule, how does the survival read?
**A.** The survival was inactive: 88%.

**Q.** With COc1ccc(-c2onc(C)c2C)cc1S(=O)(=O)NCc1ccc(C)o1 as the molecule, how does the survival read?
**A.** Its survival is inactive: 89%.

**Q.** With Cc1nn(CCC(=O)NCc2ccc(Cl)cc2)c(=O)c2nn(-c3ccccc3)c(C)c12 as the molecule, how does the survival read?
**A.** Its survival is active: 0%.
